The text below walks through data of PMC4336329 (PLoS ONE, 2015).

Out of some 310,000 compounds screened, about 14,000 (4.5%) showed an effect of 50% or more. The effect is printed as a negative number. The list shows a part of the results.
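Further: peak tail current of the secondary pulse compared with the same well before compound.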

Chain of human ether-à-go-go-related gene (hERG) potassium channel (Q12809 whole entry, looked up): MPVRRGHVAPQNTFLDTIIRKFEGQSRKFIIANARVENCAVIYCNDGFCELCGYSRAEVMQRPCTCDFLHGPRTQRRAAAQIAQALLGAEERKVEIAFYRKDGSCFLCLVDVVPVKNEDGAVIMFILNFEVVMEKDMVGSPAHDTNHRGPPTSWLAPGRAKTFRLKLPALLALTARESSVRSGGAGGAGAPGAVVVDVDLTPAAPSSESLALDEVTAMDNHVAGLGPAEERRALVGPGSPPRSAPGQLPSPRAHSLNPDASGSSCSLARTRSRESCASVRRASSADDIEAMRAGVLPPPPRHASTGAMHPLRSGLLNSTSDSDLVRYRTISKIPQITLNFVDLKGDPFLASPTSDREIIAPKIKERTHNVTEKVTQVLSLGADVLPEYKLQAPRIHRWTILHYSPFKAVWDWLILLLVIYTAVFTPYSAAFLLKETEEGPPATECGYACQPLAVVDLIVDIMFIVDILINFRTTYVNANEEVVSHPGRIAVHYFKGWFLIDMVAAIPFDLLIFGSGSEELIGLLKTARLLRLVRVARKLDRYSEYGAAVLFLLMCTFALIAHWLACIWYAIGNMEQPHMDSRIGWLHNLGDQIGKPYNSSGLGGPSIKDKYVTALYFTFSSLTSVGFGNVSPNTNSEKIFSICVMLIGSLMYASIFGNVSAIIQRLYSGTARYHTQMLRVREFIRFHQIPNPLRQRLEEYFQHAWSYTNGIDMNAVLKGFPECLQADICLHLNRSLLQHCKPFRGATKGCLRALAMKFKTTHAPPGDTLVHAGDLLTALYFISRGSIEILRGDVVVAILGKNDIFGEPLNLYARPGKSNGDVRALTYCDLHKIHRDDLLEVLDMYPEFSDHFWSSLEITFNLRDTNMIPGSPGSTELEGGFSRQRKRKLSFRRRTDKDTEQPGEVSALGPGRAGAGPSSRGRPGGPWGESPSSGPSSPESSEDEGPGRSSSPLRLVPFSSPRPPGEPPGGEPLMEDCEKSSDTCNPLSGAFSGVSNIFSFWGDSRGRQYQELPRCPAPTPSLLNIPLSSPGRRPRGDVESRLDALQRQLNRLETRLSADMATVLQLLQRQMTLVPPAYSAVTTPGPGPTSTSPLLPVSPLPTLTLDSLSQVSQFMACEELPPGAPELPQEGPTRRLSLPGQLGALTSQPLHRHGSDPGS

This experiment addresses human ether-à-go-go-related gene (hERG) potassium channel (human, UniProt Q12809). Briefly: primary screen, population patch clamp on CHO cells stably expressing hERG.
Turning to `Cc1ccc(C(=O)NC(=S)Nc2ccccc2N2CCCC2)cc1[N+](=O)[O-]`, the “hERG current change (%, negative = inhibition) at 10uM” value is 8.94%.

`CCCc1cc(=O)oc2cc(C)cc(O)c12`: the “hERG current change (%, negative = inhibition) at 10uM” value is given as -6.43%. Under `CN(C)c1nc2c(c(=O)n(C)c(=O)n2C)n1Cc1ccccc1` stands -7.47%; under `Cc1cccn(Cc2c(F)cccc2Cl)c1=O`, 17.1%. Regarding `O=C1CC(c2ccccc2)CC(O)=C1C=NC1CCCCC1` (stereo not drawn), the “hERG current change (%, negative = inhibition) at 10uM” value was -10.2%.

For `COc1cc(NC(C)CCCN)c2ncccc2c1.O=P(O)(O)O` (stereo not drawn), the “hERG current change (%, negative = inhibition) at 10uM” value came out at 2.62%.

`Clc1ccc(CSc2nnc(-c3cccnc3)o2)cc1`: the “hERG current change (%, negative = inhibition) at 10uM” value was -14%. Turning to `Cn1c(SCn2nnc3ccccc3c2=O)nc2ccccc2c1=O`, the “hERG current change (%, negative = inhibition) at 10uM” value came out at 20.8%.

Take `O=C(N/N=C/c1oc(O)c2ccccc12)c1ccccc1O`: the “hERG current change (%, negative = inhibition) at 10uM” value came to 8.28%. For the compound `Cc1cc(C)c(S(=O)(=O)Nc2cccc3nsnc23)c(C)c1`, the “hERG current change (%, negative = inhibition) at 10uM” value is -3.18%. Consider `O=C(Nc1ccccc1Cc1ccccc1)c1ccccc1NS(=O)(=O)c1ccc(Cl)s1`, for which the “hERG current change (%, negative = inhibition) at 10uM” value worked out at 9.34%.

`O=C(CSc1nnc(CNC(=O)c2cccs2)o1)NC1CCCC1`: the “hERG current change (%, negative = inhibition) at 10uM” value was 0.995%. Under `COc1c(O)cc2oc(-c3ccc(O)cc3)cc(=O)c2c1O` stands -5.54%. `Cc1nn(-c2ccccc2)c(C)c1C(=O)OCC(=O)NC12CC3CC(CC(C3)C1)C2`: the “hERG current change (%, negative = inhibition) at 10uM” value was 4.48%.

Turning to `O=C(CN1CCN(c2ccccc2F)CC1)c1ccc(O)c(O)c1`, the “hERG current change (%, negative = inhibition) at 10uM” value is listed as -70.7%. For `Cc1cccnc1NC(=O)c1ccc2c(c1)OCCO2`, the “hERG current change (%, negative = inhibition) at 10uM” value is -3.42%. The same measure for `O=C(COC(=O)/C=C/c1ccco1)Nc1cccc([N+](=O)[O-])c1`: 23.4%. Under `O=C(COC(=O)c1c2c(nc3ccccc13)CCN(Cc1ccccc1)C2)Nc1c(F)cccc1F` stands -27.4%; under `CCCN1C(=O)N(c2cccc(C)c2)C(C)(O)CC1(C)C` (stereo not drawn), -5.27%; under `Cc1nnc(SCC(=O)NC2CC2)n1CC1CCCO1` (stereo not drawn), 40.2%.

Regarding `CC(=O)N(Cc1cc(=O)[nH]c2ccccc12)c1ccc(C)cc1C`, the “hERG current change (%, negative = inhibition) at 10uM” value came out at 8.06%. Under `CCN(CC)CC(=O)Nc1ccc(Oc2ccc(NC(=O)CN(CC)CC)cc2)cc1` stands 17.1%. Take `Cn1cnnc1SCc1ccc(C(=O)O)cc1`: the “hERG current change (%, negative = inhibition) at 10uM” value turned out to be 6.73%. With `O=C(COC(=O)CN1C(=O)C2CCCCC2C1=O)Nc1c(Cl)cccc1Cl` (stereo not drawn), the “hERG current change (%, negative = inhibition) at 10uM” value is -22.6%. Under `CCOC(=O)Cc1nnc(NC(=O)C2CCCCC2)s1` stands 12.3%; under `CCN(C(=O)c1cccnc1SC)C12CC3CC(CC(C3)C1)C2`, 12.2%. Consider `CCOCCCn1c(=S)[nH]c2cc(C(=O)NCCCN(CC)CC)ccc2c1=O`, for which the “hERG current change (%, negative = inhibition) at 10uM” value was 2.06%.

Turning to `O=S(=O)(c1cccc(Cl)c1)N1CCSc2ccccc21`, the “hERG current change (%, negative = inhibition) at 10uM” value is recorded as -14.9%. The same measure for `CCn1cc(C(=O)N2CCn3c(nc4ccccc43)C2)c(=O)c2ccc(C)nc21`: -12.4%. Take `CCOC(=O)c1cnc2c(CC)cccc2c1NCCCN1CCOCC1`: the “hERG current change (%, negative = inhibition) at 10uM” value was -35.6%. Take `CCNC(=O)[C@H]1O[C@@H](n2cnc3c(N)nc(NCCc4ccc(CCC(=O)O)cc4)nc32)[C@H](O)[C@@H]1O.Cl`: the “hERG current change (%, negative = inhibition) at 10uM” value worked out at 12.2%.

As to `O=C(CCNC(=O)c1ccccc1Cl)Nc1cc(C(F)(F)F)ccc1N1CCCC1`, the “hERG current change (%, negative = inhibition) at 10uM” value worked out at 7.45%. In the case of `Cc1c(C(=O)NCCc2ccccc2)oc2ccc(S(=O)(=O)N3CCC4(CC3)OCCO4)cc12`, the “hERG current change (%, negative = inhibition) at 10uM” value was -26%.

For `O=S(=O)(Nc1ccc2ccccc2n1)c1ccccc1`, the “hERG current change (%, negative = inhibition) at 10uM” value amounted to 22.6%. For `CCC(=O)n1nc(NCc2ccccc2OC)nc1NCc1ccccc1OC`, the “hERG current change (%, negative = inhibition) at 10uM” value is given as 6.99%. Regarding `CCN(CC)c1ccc(C=Nc2ccc(C#N)cc2)c(O)c1`, the “hERG current change (%, negative = inhibition) at 10uM” value is -2.03%. Under `O=C(CCc1nc2ccccc2c(=O)[nH]1)NCc1cccc(Cl)c1` stands -2.59%; under `COc1cc(CCCN2C(=S)NC[C@H]2Cc2ccc(O)cc2)cc(OC)c1OC`, -16.4%. For the compound `O=C(CCn1cnc2ccccc2c1=O)Nc1ccc(Cl)c(Cl)c1`, the “hERG current change (%, negative = inhibition) at 10uM” value was -4.04%. The same measure for `CCc1nnc(NC(=O)C2CCN(C(=O)c3ccco3)CC2)s1`: -0.31%. For the compound `COc1ccc(N(C)S(=O)(=O)c2cccc(C(=O)N(C)Cc3ccc(C)o3)c2)cc1`, the “hERG current change (%, negative = inhibition) at 10uM” value is -30.3%. Under `CCC(CC)c1nnc(NC(=O)COc2ccc3c(C)cc(=O)oc3c2)s1` stands -1.11%; under `CC(=O)c1cc2c(cc1NC(=O)Nc1cccc(Cl)c1)OCCO2`, -11.7%. Under `O=C(Nc1ccncc1)c1ccc2c(c1)C(=O)N(C1CCCCC1)C2=O` stands 7.44%; under `CN(Cc1ccccn1)C(=O)C1CCC(=O)N(Cc2cccc(C(F)(F)F)c2)C1` (stereo not drawn), -15.7%; under `CCOc1ccccc1C(=O)Nc1cc(C(=O)NCC(C)C)ccc1Cl`, 12%. Under `CCOC(=O)Nc1ccc2c(c1)N(C(=O)N1CCN(C)CC1)c1ccccc1CC2.Cl` stands -16.7%; under `CCCCOc1ccc(-c2nnc(-c3cc[n+](C)cc3)o2)cc1.O=S(=O)([O-])c1ccccc1`, -18.3%. For the compound `COc1ccc(S(=O)(=O)N(C)Cc2ccc3c(c2)OCCO3)cc1`, the “hERG current change (%, negative = inhibition) at 10uM” value is reported as -13.6%.

In the case of `CCOc1ccc(CCNC(=O)COC(=O)c2ccc(OC)c(OC)c2OC)cc1OCC`, the “hERG current change (%, negative = inhibition) at 10uM” value was found to be 12.2%. As to `CCOc1ccc(CCNC(=O)c2ccc(F)c(S(=O)(=O)N3CCOCC3)c2)cc1OCC`, the “hERG current change (%, negative = inhibition) at 10uM” value stood at 2.34%. On to `CCOc1ccc(-c2c(C(=O)N/N=C(\C)c3ccccc3OC)nnn2-c2nonc2N)cc1`, for which the “hERG current change (%, negative = inhibition) at 10uM” value worked out at 23.5%.

As for `Cc1ccc(NC(=O)C(CC(=O)O)C2CCCO2)c(C)c1` (stereo not drawn), the “hERG current change (%, negative = inhibition) at 10uM” value is listed as -13.7%.

Take `CC1(C)C(=O)Nc2ccccc2N1C(=O)COC(=O)COc1cccc(C(F)(F)F)c1`: the “hERG current change (%, negative = inhibition) at 10uM” value is on record as -10%.

For the compound `Cc1ccc(S(=O)(=O)N2CC(=NN=C(N)N)C2)cc1`, the “hERG current change (%, negative = inhibition) at 10uM” value came out at 28.4%. Turning to `Cc1ccc(NC(=O)C2CCCN(S(=O)(=O)c3cnc[nH]3)C2)c(Br)c1` (stereo not drawn), the “hERG current change (%, negative = inhibition) at 10uM” value is -6.61%.

In the case of `Cn1cc(CC(=O)Nc2cccc(C#N)c2)c2ccccc21`, the “hERG current change (%, negative = inhibition) at 10uM” value is listed as -14%. The same measure for `C=CCn1c(C(CCCC)CC(O)COCCC)n[nH]c1=S` (stereo not drawn): 8.6%.

Regarding `Cc1nnc(SCC(=O)N(C(C)C)C(C)C)nc1C`, the “hERG current change (%, negative = inhibition) at 10uM” value stood at 12.3%. Regarding `Fc1ccc(CSc2nc3ncc(Br)cc3[nH]2)cc1`, the “hERG current change (%, negative = inhibition) at 10uM” value is reported as -0.963%.

Regarding `Cc1cccnc1CCNCc1c(C(=O)N2C[C@@H](C)O[C@@H](C)C2)nc2ccc(Cl)cn12`, the “hERG current change (%, negative = inhibition) at 10uM” value is listed as -13.2%. The same measure for `Clc1ccc(N2CCN(c3ccnc(Cl)n3)CC2)cc1`: -28%. The same measure for `Cc1ccc(S(=O)(=O)N(CC(=O)Nc2cccnc2)c2ccccc2C)cc1`: -16.4%.

As for `O=C(/C=C/c1ccc(N2CCCCC2)c([N+](=O)[O-])c1)c1ccc(O)cc1`, the “hERG current change (%, negative = inhibition) at 10uM” value is 4.95%. `COc1cc2[nH]c3c(N4CCC(C(N)=O)CC4)ncnc3c2cc1OC`: the “hERG current change (%, negative = inhibition) at 10uM” value is listed as 15.7%. Under `Cn1cc(S(=O)(=O)Nc2ccc(Br)cc2F)c(=O)n(C)c1=O` stands 11.1%; under `CC1Sc2ccc(S(=O)(=O)N3CCC(C(=O)NCc4ccc(Cl)cc4)CC3)cc2NC1=O` (stereo not drawn), -5.58%; under `O=C1NC(=O)C2(CCC(C(=O)O)C2)N1` (stereo not drawn), 19.3%.

Turning to `CC1CC(=O)c2cnc(NCc3ccco3)nc2C1` (stereo not drawn), the “hERG current change (%, negative = inhibition) at 10uM” value is on record as 9.12%. Turning to `Cc1cc(NC(=O)CSc2nnc(CNc3cccc(C(F)(F)F)c3)n2Cc2ccco2)no1`, the “hERG current change (%, negative = inhibition) at 10uM” value was -8.93%. Take `Nc1ccccc1SCCS(=O)(=O)c1ccc(Cl)cc1`: the “hERG current change (%, negative = inhibition) at 10uM” value is listed as 24.5%. `Cc1ccccc1C(=O)Nc1ccnn1C1CCN(Cc2ccncc2)CC1`: the “hERG current change (%, negative = inhibition) at 10uM” value is on record as -45.1%.

For the compound `COc1ccc(COC(=O)C2CCN(C(=O)c3ccc(Cl)cc3)CC2)cc1F`, the “hERG current change (%, negative = inhibition) at 10uM” value is -52.2%.

Regarding `COc1ccc(S(=O)(=O)N2CCC(C(=O)NC3CC3)CC2)cc1C`, the “hERG current change (%, negative = inhibition) at 10uM” value was determined as 8.22%. The same measure for `O=C(CCc1nnc(Cc2ccc(-c3ccccc3)cc2)o1)N1CCCC1`: -13%.

As to `Cc1ccc(-n2c(SCC(=O)N(C)C)nnc2-c2ccco2)cc1`, the “hERG current change (%, negative = inhibition) at 10uM” value was 4.74%. Consider `CCCCOc1ccc(C(=O)N/C(=C/C=C/c2ccccc2)C(=O)N2CCOCC2)cc1`, for which the “hERG current change (%, negative = inhibition) at 10uM” value is -5.66%.

As for `COCCNC(=S)Nc1ccccc1Cc1ccccc1`, the “hERG current change (%, negative = inhibition) at 10uM” value is 1.69%.

In the case of `Cc1ccc(NC(=O)Cn2nnc(C(=O)NCCc3ccccc3)c2N)cc1Cl`, the “hERG current change (%, negative = inhibition) at 10uM” value is on record as 13.3%. Under `CN1C(=O)CC(C(=O)O)SC1=Nc1ccc(F)cc1` (stereo not drawn) stands -14.5%; under `Cc1ccc([N+](=O)[O-])cc1NC(=O)C(C)NS(=O)(=O)c1ccc(F)cc1` (stereo not drawn), 7.08%; under `O=C(Oc1ccc(-c2cnc3ccccc3n2)cc1)c1ccco1`, 11.8%. Under `Cc1cc(-c2cc(N)n(-c3ccccc3)n2)c(C)n1C1CCCC1` stands -16.8%; under `COc1cc([N+](=O)[O-])ccc1NC(=O)CSc1nccn1C`, 3.14%; under `COc1ccc(NC(=O)CN(C)C(=O)/C=C/c2cn(Cc3ccccc3)nc2-c2cccnc2)cc1`, -25.9%. The same measure for `O=C(CN(c1ccc(Cl)cc1)S(=O)(=O)c1ccc(Cl)c([N+](=O)[O-])c1)NCCc1ccc(F)cc1`: 5.16%. Consider `O=C(c1cc2c(s1)CCC2)N1C(=O)c2ccccc2S1(=O)=O`, for which the “hERG current change (%, negative = inhibition) at 10uM” value is given as 12.9%.
